The source of these data is article PMC9911399, “Two distinct binding modes provide the RNA-binding protein RbFox with extraordinary sequence specificity”.

Substitutions are numbered along the chain they refer to; changes in the protein carry UniProt numbers. Some of the results follow.

T1: RBFOX1 RRM (Homo sapiens, UniProt Q9NWB1 109-208)
T1 sequence: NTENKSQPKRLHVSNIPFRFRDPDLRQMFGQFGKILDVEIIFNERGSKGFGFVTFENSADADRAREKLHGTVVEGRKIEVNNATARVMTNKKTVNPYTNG

B1: AAUAAGU (DNA:RNA)
RNA: GGGAGACCGGAAUUCAGAUUGUCCAAUAAGUUUAAAUCCCGUCGUAGCCACCA
DNA 1: CAATCTGAATTCCGGTCTCCC
DNA 2: TGGTGGCTACGACGGGATT
B2: GAUUGGG (DNA:RNA)
RNA: B1 RNA with A25G, A28U, A29G, U31G
DNA 1: CAATCTGAATTCCGGTCTCCC
DNA 2: TGGTGGCTACGACGGGATT
B3: CGAGGUG (DNA:RNA)
RNA: GGGAGACCGGAAUUCAGAUUGUCCCGAGGUGUUAAAUCCCGUCGUAGCCACCA
DNA 1: CAATCTGAATTCCGGTCTCCC
DNA 2: TGGTGGCTACGACGGGATT
B4: AGUAAAC (DNA:RNA)
RNA: B1 RNA with A26G, G30A, U31C
DNA 1: CAATCTGAATTCCGGTCTCCC
DNA 2: TGGTGGCTACGACGGGATT
B5: GCUACAU (DNA:RNA)
RNA: B1 RNA with A25G, A26C, A29C, G30A
DNA 1: CAATCTGAATTCCGGTCTCCC
DNA 2: TGGTGGCTACGACGGGATT
B6: CUGCAGG (DNA:RNA)
RNA: B1 RNA with A25C, A26U, U27G, A28C, U31G
DNA 1: CAATCTGAATTCCGGTCTCCC
DNA 2: TGGTGGCTACGACGGGATT
B7: GGCUAGG (DNA:RNA)
RNA: B1 RNA with A25G, A26G, U27C, A28U, U31G
DNA 1: CAATCTGAATTCCGGTCTCCC
DNA 2: TGGTGGCTACGACGGGATT
B8: UCGGCGA (DNA:RNA)
RNA: B1 RNA with A25U, A26C, U27G, A28G, A29C, U31A
DNA 1: CAATCTGAATTCCGGTCTCCC
DNA 2: TGGTGGCTACGACGGGATT
B9: UAGCGUG (DNA:RNA)
RNA: B3 RNA with C25U, G26A, A27G, G28C
DNA 1: CAATCTGAATTCCGGTCTCCC
DNA 2: TGGTGGCTACGACGGGATT
B10: AUCUGAA (DNA:RNA)
RNA: B1 RNA with A26U, U27C, A28U, A29G, G30A, U31A
DNA 1: CAATCTGAATTCCGGTCTCCC
DNA 2: TGGTGGCTACGACGGGATT
B11: GCUAGGG (DNA:RNA)
RNA: B1 RNA with A25G, A26C, A29G, U31G
DNA 1: CAATCTGAATTCCGGTCTCCC
DNA 2: TGGTGGCTACGACGGGATT
B12: UCAGAGG (DNA:RNA)
RNA: B3 RNA with C25U, G26C, G29A, U30G
DNA 1: CAATCTGAATTCCGGTCTCCC
DNA 2: TGGTGGCTACGACGGGATT
B13: CAGAGGG (DNA:RNA)
RNA: B1 RNA with A25C, U27G, A29G, U31G
DNA 1: CAATCTGAATTCCGGTCTCCC
DNA 2: TGGTGGCTACGACGGGATT
B14: UUUGCGC (DNA:RNA)
RNA: B1 RNA with A25U, A26U, A28G, A29C, U31C
DNA 1: CAATCTGAATTCCGGTCTCCC
DNA 2: TGGTGGCTACGACGGGATT
B15: UGUCUCA (DNA:RNA)
RNA: B1 RNA with A25U, A26G, A28C, A29U, G30C, U31A
DNA 1: CAATCTGAATTCCGGTCTCCC
DNA 2: TGGTGGCTACGACGGGATT
B16: ACCGGAG (DNA:RNA)
RNA: B3 RNA with C25A, G26C, A27C, U30A
DNA 1: CAATCTGAATTCCGGTCTCCC
DNA 2: TGGTGGCTACGACGGGATT
B17: GUACCGG (DNA:RNA)
RNA: B3 RNA with C25G, G26U, G28C, G29C, U30G
DNA 1: CAATCTGAATTCCGGTCTCCC
DNA 2: TGGTGGCTACGACGGGATT
B18: GUGAAUA (DNA:RNA)
RNA: B1 RNA with A25G, A26U, U27G, G30U, U31A
DNA 1: CAATCTGAATTCCGGTCTCCC
DNA 2: TGGTGGCTACGACGGGATT
B19: CCAUUGG (DNA:RNA)
RNA: B3 RNA with G26C, G28U, G29U, U30G
DNA 1: CAATCTGAATTCCGGTCTCCC
DNA 2: TGGTGGCTACGACGGGATT
B20: GACUCCA (DNA:RNA)
RNA: B1 RNA with A25G, U27C, A28U, A29C, G30C, U31A
DNA 1: CAATCTGAATTCCGGTCTCCC
DNA 2: TGGTGGCTACGACGGGATT

In this assay the target is T1, RBFOX1 RRM. The assay is described as follows: EMSA; HiTS-Eq, 1 nM pool, 10 min; buffer printed only for the single-RNA assays: 10 mM Tris pH 7.5, 150 mM NaCl, 3.4 mM EDTA, 0.001% NP-40, 30 C. To be noted: tags: His6 N-terminal (pET28a); label: 5' 32P. The procedure, abridged: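 A pool of RNA with 7 randomized nucleotides, 5′-radiolabelled and with DNA-annealed flanks, was equilibrated at 1 nM for 10 min in 50 µL with purified RbFox RRM, wild type or mutant, across increasing protein concentrations. Free RNA was separated by 8% native PAGE, excised, reverse-transcribed, barcoded by PCR and sequenced. Relative association constants were obtained from read-count changes of each RNA species versus the control reaction and normalised to the cognate motif.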
Take B1: the binding signal was 0.0036 KA relative to UGCAUGU.
In the case of B2 it was 0.0116 KA relative to UGCAUGU; in that of B3, 0.0167 KA relative to UGCAUGU; in that of B4, 0.00682 KA relative to UGCAUGU.
In the case of B5 it was 0.00711 KA relative to UGCAUGU; in that of B6, 0.0186 KA relative to UGCAUGU; in that of B7, 0.0209 KA relative to UGCAUGU.
The value for B8 was 0.0175 KA relative to UGCAUGU; that for B9 was 0.0281 KA relative to UGCAUGU; that for B10 was 0.0149 KA relative to UGCAUGU.
Consider B11, for which the binding signal is 0.00935 KA relative to UGCAUGU.
On to B12, for which the binding signal was 0.00775 KA relative to UGCAUGU.
Take B13: the binding signal was 0.00485 KA relative to UGCAUGU.
As to B14, the binding signal was 0.0234 KA relative to UGCAUGU.
With B15, the binding signal was 0.0115 KA relative to UGCAUGU.
With B16, the binding signal was 0.00294 KA relative to UGCAUGU.
Take B17: the binding signal was 0.00799 KA relative to UGCAUGU.
In the case of B18 it was 0.00781 KA relative to UGCAUGU; in that of B19, 0.00895 KA relative to UGCAUGU.
The value for B20 was 0.00309 KA relative to UGCAUGU.
